Measurements: a compilation of properties of binary mixtures (doi:10.1021/acs.jced.8b00334)
The densities may have been worked out from excess volumes.

Assay: xn = mol fraction of the nth substance listed
Details: 101.3 kPa

CCCCC[P+](CC)(CC)CC.O=S(=O)([N-]S(=O)(=O)C(F)(F)F)C(F)(F)F + CCCCC[N+](CC)(CC)CC.O=S(=O)([N-]S(=O)(=O)C(F)(F)F)C(F)(F)F
x2 = 0
Details	mass density [kg/m3]
288.15 K	1310
293.15 K	1306
298.15 K	1302
303.15 K	1298
308.15 K	1294
313.15 K	1290
318.15 K	1285
328.15 K	1277
333.15 K	1273
338.15 K	1269
343.15 K	1265
348.15 K	1260
353.15 K	1256

CCCCC[N+](CC)(CC)CC.O=S(=O)([N-]S(=O)(=O)C(F)(F)F)C(F)(F)F + CCCCC[P+](CC)(CC)CC.O=S(=O)([N-]S(=O)(=O)C(F)(F)F)C(F)(F)F
mass density [kg/m3]
Details	x1 = 0.2	x1 = 0.4	x1 = 0.6	x1 = 0.8	x1 = 1
283.15 K	1316	1318	1319	1321	1324
288.15 K	1312	1314	1315	1317	1319
293.15 K	1308	1309	1311	1313	1315
298.15 K	1304	1305	–	1309	1311
303.15 K	1300	1301	1303	1305	–
308.15 K	1295	1297	1298	1301	1302
313.15 K	1291	1293	1294	1296	1298
318.15 K	–	1288	1290	1292	1294
323.15 K	1283	1284	1286	1288	1290
328.15 K	1279	1280	1282	1284	1286
333.15 K	1274	1276	1278	1280	1282
338.15 K	1270	1272	–	1276	1278
343.15 K	1266	1268	1269	1272	–
348.15 K	1262	1264	1265	–	1269
353.15 K	–	1260	1261	1263	–

CCC[N+](C)(C)C.O=S(=O)([N-]S(=O)(=O)C(F)(F)F)C(F)(F)F + CCC[N+]1(C)CCCC1.O=S(=O)([N-]S(=O)(=O)C(F)(F)F)C(F)(F)F
mass density [kg/m3]
Details	x1 = 0.2	x1 = 0.4	x1 = 0.6	x1 = 0.8	x1 = 1
283.15 K	1440	–	–	1440	–
288.15 K	1435	1435	–	1436	–
293.15 K	1431	–	1431	1431	1432
298.15 K	1426	1426	1427	1427	1427
303.15 K	1422	1422	1422	–	1423
308.15 K	–	1417	–	1418	1418
313.15 K	1413	1413	–	1414	1414
318.15 K	1409	1408	1409	–	1409
323.15 K	1404	1404	1404	–	–
328.15 K	–	–	1400	–	1400
333.15 K	–	–	–	1396	–
338.15 K	1391	1391	1391	1391	1391
343.15 K	1387	–	1387	1387	1387
348.15 K	1382	–	1382	1382	1383
353.15 K	–	1378	–	1378	1378

CCC[N+](C)(C)C.O=S(=O)([N-]S(=O)(=O)C(F)(F)F)C(F)(F)F + CCC[N+]1(C)CCCCC1.O=S(=O)([N-]S(=O)(=O)C(F)(F)F)C(F)(F)F
mass density [kg/m3]
Details	x1 = 0.2	x1 = 0.4	x1 = 0.6	x1 = 0.8	x1 = 1
283.15 K	1425	1428	–	–	1441
288.15 K	1420	1424	1428	1431	1436
293.15 K	1416	1420	–	–	1432
298.15 K	1412	1415	1419	1423	1427
303.15 K	1407	1411	1414	1418	1423
308.15 K	1403	–	–	1414	1418
313.15 K	1399	1402	1406	–	1414
318.15 K	1394	–	–	1405	1409
323.15 K	1390	1393	1397	1400	1405
328.15 K	1386	1389	1392	1396	1400
333.15 K	1381	1385	1388	1392	1396
338.15 K	1377	1380	1384	1387	1391
343.15 K	1373	–	1379	–	1387
348.15 K	1368	1372	1375	–	–
353.15 K	1364	1367	1371	1374	1378

CCC[N+]1(C)CCCC1.O=S(=O)([N-]S(=O)(=O)C(F)(F)F)C(F)(F)F + CCC[N+](C)(C)C.O=S(=O)([N-]S(=O)(=O)C(F)(F)F)C(F)(F)F
x2 = 0
Details	mass density [kg/m3]
283.15 K	1441
288.15 K	1436
293.15 K	1432
303.15 K	1423
308.15 K	1418
313.15 K	1414
318.15 K	1409
323.15 K	1405
328.15 K	1400
333.15 K	1396
338.15 K	1392
343.15 K	1387
348.15 K	1383
353.15 K	1379

CCC[N+]1(C)CCCCC1.O=S(=O)([N-]S(=O)(=O)C(F)(F)F)C(F)(F)F + CCC[N+](C)(C)C.O=S(=O)([N-]S(=O)(=O)C(F)(F)F)C(F)(F)F
x2 = 0
Details	mass density [kg/m3]
283.15 K	1422
288.15 K	1418
308.15 K	1400
318.15 K	1391
323.15 K	1387
328.15 K	1383
333.15 K	1378
348.15 K	1365
353.15 K	1361
